# Measured values as given in PubChem BioAssay AID485294 (National Center for Advancing Translational Sciences (NCATS), 2010).
# Screen size: about 370,000 compounds; about 150 (0.041%) were called active. The shares of active, inactive and inconclusive entries below differ from those in the screen. Calls come from the whole dose curve; as a rule, active = well fitted inhibition curve with a large enough effect; inconclusive = small, poorly fitted or top-dose-only effect; inactive = flat fitted curve, though single readings scatter. Potencies of inconclusive entries are left out as doubtful fits.
# Target: Beta-lactamase (Escherichia coli (strain K12)) (UniProt P00811)
# Sequence of UniProt P00811 (P00811 whole entry, looked up): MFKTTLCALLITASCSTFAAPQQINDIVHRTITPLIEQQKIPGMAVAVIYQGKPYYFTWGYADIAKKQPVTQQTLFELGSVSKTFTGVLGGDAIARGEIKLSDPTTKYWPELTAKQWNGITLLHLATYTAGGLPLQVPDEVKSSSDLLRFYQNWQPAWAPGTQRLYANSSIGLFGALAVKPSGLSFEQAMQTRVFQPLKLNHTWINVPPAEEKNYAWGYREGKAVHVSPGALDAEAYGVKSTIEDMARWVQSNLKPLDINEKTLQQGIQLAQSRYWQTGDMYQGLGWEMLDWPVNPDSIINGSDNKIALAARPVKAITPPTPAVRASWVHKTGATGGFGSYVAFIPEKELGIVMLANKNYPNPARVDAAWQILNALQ
# Experiment: qHTS Inhibitors of AmpC Beta-Lactamase (assay with detergent); note: nearly all actives have a fitted effect of over 25% in size
# Conditions: AmpC hydrolysis of nitrocefin, absorbance 480 nm, 0.01% Triton; series mostly up to 114 µM
# How it was run: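 20 mM phosphate pH 7.0 + 0.01% (detergent screen) or 0.0001% Triton X-100; 5.3 nM AmpC reagent; cpd preinc 15 min RT; nitrocefin (800 uM stock) to start; A480 q20 s × 4 min; Activity was normalised to no-enzyme and no-compound control wells.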
# Potency is the fitted concentration of half-maximal effect; tags give direction and shape of the fitted curve.
row,Compound,Potency
1,CCCN(CC1CC1)C(=S)NC(=O)c1ccc(S(=O)(=O)N2CCOCC2)cc1,"inconclusive [inhibitor, partial curve, poor fit]"
2,O=C1c2cccnc2C(=O)N1Cc1ccc(S(=O)(=O)N2CCOc3ccccc32)cc1,"inconclusive [inhibitor, partial curve, poor fit]"
3,COC(=O)C1=C(c2ccc(F)cc2OCc2ccccc2)C[C@@H]2CC[C@H]1N2C(=O)NCC1CC1,inactive
4,O=C(CC(Nc1ccc(Cl)cc1Cl)C(=O)O)c1ccccc1 (stereo unspecified),inactive
5,O=C(CCCc1ccccc1)Nc1ccc2c(c1)OCCO2,inactive
6,COc1ccc(CCNc2nc3ccccc3n3nnnc23)cc1OC,"inconclusive [inhibitor, full curve, poor fit]"
7,O=C(CSc1nnc(CNC(=O)c2ccccc2F)o1)NCc1ccco1,"inconclusive [inhibitor, partial curve]"
8,CS(=O)(=O)N1CCN(c2ncccn2)CC1,"inconclusive [inhibitor, full curve, poor fit]"
9,CCc1ccc2nc(N(Cc3cccnc3)C(C)=O)sc2c1,inactive
10,C/C(=N/NC(=O)c1ccc(C)s1)c1cccnc1,inactive
11,c1ccc(-c2nc(N3CCCCCC3)nc(-n3ccnc3)n2)cc1,"inconclusive [inhibitor, partial curve, poor fit]"
12,COc1cccc(N(C(=O)CNC(=O)c2ccco2)C(C(=O)NC2CCCC2)c2ccncc2)c1 (stereo unspecified),"inconclusive [inhibitor, single point]"
13,COc1ccc(CC(=O)Nc2ccc(-c3noc(-c4ccc(Cl)cc4)n3)cc2)cc1,"inconclusive [inhibitor, full curve, poor fit]"
14,O=Cc1ccc(Oc2cccc(C(F)(F)F)c2)nc1,"inconclusive [inhibitor, full curve]"
15,O=C(CS(=O)(=O)c1ccccc1)NC1CCCCC1,"inconclusive [inhibitor, full curve, poor fit]"
16,COc1cccc(-c2nc(CS(=O)(=O)CC(=O)NCCC(C)C)c(C)o2)c1,inactive
17,Cc1ccc(Cl)cc1N1CCN(C(=O)c2ccc(CN3CCOCC3)cc2)CC1,inactive
18,Cc1ccc(NC(=O)CSCC(=O)N(C)CC(=O)Nc2cccc(F)c2)cc1,"inconclusive [inhibitor, full curve, poor fit]"
19,Fc1ccc(-n2cnnn2)c(F)c1,"inconclusive [inhibitor, full curve, poor fit]"
20,CC1=CC(=C(C#N)C#N)C=C(C)N1CCN1CCNCC1,inactive
21,CC(C)n1nc(C(=O)NNC(=O)c2ccc(OC(F)F)cc2)c2ccccc2c1=O,"inconclusive [inhibitor, full curve, poor fit]"
22,CC(C)CN1CC(C(=O)O)CC1=O (stereo unspecified),"inconclusive [inhibitor, partial curve]"
23,Cc1ccc(N2CC(C(=O)OCc3nnc(-c4ccccc4)o3)CC2=O)cc1 (stereo unspecified),"inconclusive [inhibitor, single point]"
24,CC1CCCC(NC(=O)COC(=O)COc2ccc(Cl)cc2)C1C (stereo unspecified),"inconclusive [inhibitor, full curve, poor fit]"

row,Compound,Potency
1,COc1ccc2c(c1)C(=NN)c1cc(OC)ccc1-2,inactive
2,Cc1nn(-c2ccccc2)c(-n2cccc2)c1C(=O)NCCc1ccc(Cl)cc1,inactive
3,CN1CC[n+]2c(CN3C(=O)c4ccccc4C3=O)csc21,"inconclusive [inhibitor, full curve]"
4,COc1cccc(C(=O)C2CCCN(Cc3cccc(C)n3)C2)c1 (stereo unspecified),inactive
5,O=C(c1ccccc1)c1c(O)nc(-c2ccccc2)n(-c2ccccc2)c1=O,"inconclusive [inhibitor, partial curve, poor fit]"
6,Brc1cccc(-c2nnc3sc(CN4CCCCC4)cn23)c1,"inconclusive [inhibitor, partial curve, poor fit]"
7,CCCC1C(C#N)=C(N)Oc2c1c(=O)oc1ccccc21 (stereo unspecified),inactive
8,Cc1ccc(N2C(=O)CSC2c2cccs2)cc1 (stereo unspecified),"inconclusive [inhibitor, full curve, poor fit]"
9,CC1CCCC(NC(=O)CN2C(=O)NC(c3ccccc3)(c3ccccc3)C2=O)C1C (stereo unspecified),"inconclusive [inhibitor, single point]"
10,Cc1sc(NC(=O)c2ccco2)c(C(c2cccnc2)N2CCC(C)CC2)c1C (stereo unspecified),inactive
11,N#Cc1cccc(S(=O)(=O)NCc2nnc3ccccn23)c1,"inconclusive [inhibitor, full curve, poor fit]"
12,COc1ccccc1C(=O)NCCn1cc(SCc2ccc(C)cc2)c2ccccc21,inactive
13,COCCCNC(=O)CN1CCN(Cc2ccccc2Cl)C1=O,"inconclusive [inhibitor, full curve, poor fit]"
14,O=C1[C@H]2[C@@H](c3ccc(F)cc3)N3C(=O)N(c4cccc(F)c4)C(=O)[C@@]3(Cc3ccccc3)[C@H]2C(=O)N1C1CCCCC1,"inconclusive [inhibitor, single point]"
15,O=C(Nc1ccccc1C(=O)NCCCN1CCOCC1)c1ccc(F)cc1F,inactive
16,Nc1ccc2c(c1Cl)C(=O)c1ccc(N)c(Cl)c1C2=O,"inconclusive [inhibitor, partial curve, poor fit]"
17,CC(C)N1C(=O)/C(=C\c2nc3ccccc3c(=O)n2-c2ccccc2)c2ccccc21,"inconclusive [inhibitor, single point]"
18,Cn1c(C(=O)N2CCC(C(=O)NCc3ccccc3)CC2)cc2sccc21,inactive
19,COc1ccccc1C(=O)NC(=O)COC(=O)c1cccc(C)c1O,"inconclusive [inhibitor, single point]"
20,Cc1ccc(SC(C)C(=O)NCC(C)C)cc1 (stereo unspecified),"inconclusive [inhibitor, full curve]"
21,Cc1ccsc1/C=N/NC(=O)c1ccc2c(c1)OCCO2,inactive
22,CCc1c(C(=O)Nc2cc(C(=O)OC)ccc2C)csc1C,"inconclusive [inhibitor, partial curve, poor fit]"
23,CCOC(=O)c1c(NC(=O)CSc2ncnc3ccccc23)sc(C(C)=O)c1C,"inconclusive [inhibitor, full curve, poor fit]"
24,CCN1CCCC1CNC(=O)C1CCN(Cc2nc(-c3cccc(Br)c3)oc2C)CC1 (stereo unspecified),inactive

row,Compound,Potency
1,CCOc1cc(CNc2cccc3ccccc23)cc(Br)c1OCC(=O)NC(C)(C)C,"inconclusive [inhibitor, single point]"
2,CC(=O)N(C)c1ccc(NC(=S)Nc2ccc(C(C)C)cc2)cc1,"inconclusive [inhibitor, full curve]"
3,COc1ccc(-c2cc3ccc(O)c(CN4CCC(C)CC4)c3oc2=O)cc1,inactive
4,Cn1c(=O)c2c(nc(SCC(=O)c3ccccc3F)n2C)n(C)c1=O,inactive
5,O=C(CCCn1c(SCC(=O)NC2CCCCC2)nc2ccccc2c1=O)NCC1CCCO1 (stereo unspecified),"inconclusive [inhibitor, full curve, poor fit]"
6,Cc1ccc(-n2ncc3c(=O)n(CC(=O)N4CCCCCC4)cnc32)cc1,"inconclusive [inhibitor, partial curve]"
7,COc1cc(C(=S)N2CCCCC2)ccc1OCC(=O)Nc1ccc(F)cc1,"inconclusive [inhibitor, full curve]"
8,CCN(C(=O)CSc1nnc(-c2cccs2)n1CC)C1CCS(=O)(=O)C1 (stereo unspecified),"inconclusive [inhibitor, full curve, poor fit]"
9,Cc1ccccc1NC(=O)c1cccc2nccnc12,"inconclusive [inhibitor, partial curve, poor fit]"
10,O=C(OCC(=O)N1N=C(c2ccc(Cl)cc2)CC1c1ccco1)c1ccco1 (stereo unspecified),inactive
11,O=C(OCc1cc(=O)n2c(n1)sc1ccccc12)c1ccc2c(=O)n3c(nc2c1)CCC3,"inconclusive [inhibitor, full curve, poor fit]"
12,CNc1c2c(nn1C)CCCC2,inactive
13,COc1ccc(Oc2c(C(F)(F)F)oc3c(CN4CCCC(C)C4)c(O)ccc3c2=O)cc1 (stereo unspecified),inactive
14,CCCOc1ccc(C(=O)NNC(=S)NC(=O)c2ccccc2)cc1,inactive
15,c1ccc(NCc2nc(-c3ccccc3)no2)cc1,inactive
16,CC(=O)c1ccc(S(=O)(=O)NC2CC(=O)N(c3ccc(C)cc3)C2)cc1 (stereo unspecified),"inconclusive [inhibitor, full curve, poor fit]"
17,CC(C)=CCc1c2c(c3occ(-c4ccc(O)cc4)c(=O)c3c1O)C=CC(C)(C)O2,inactive
18,COc1cc(NC(=O)CNC(=O)Cn2c(C)cc3ccccc3c2=O)cc(OC)c1OC,"inconclusive [inhibitor, single point]"
19,CN(C)S(=O)(=O)c1ccc2c(c1)N(CC(=O)NCc1ccc(F)cc1)C(=O)CS2,inactive
20,COc1cc(/C=N/Nc2nc3ccccc3s2)ccc1OC(=O)c1ccccc1F,inactive
21,C/C(=N/Nc1ccccc1[N+](=O)[O-])c1ccc([N+](=O)[O-])cc1,inactive
22,Nc1nn(S(=O)(=O)c2ccccc2)cc1-c1cccc([N+](=O)[O-])c1,"inconclusive [inhibitor, partial curve, poor fit]"
23,CCOC(=O)c1cc2c(=O)n3cccc(C)c3nc2n(Cc2ccccc2Cl)c1=N,"inconclusive [inhibitor, full curve, poor fit]"
